# Experimental data published in PMC4336329 (PLoS ONE, 2015).
# Hit rate of the full screen: of about 310,000 compounds, about 14,000 (4.5%) showed an effect of 50% or more. The effect is printed as a negative number. This is one part of the list.
# Biological target: human ether-à-go-go-related gene (hERG) potassium channel (human, UniProt Q12809)
# Experiment: primary screen, population patch clamp on CHO cells stably expressing hERG
# 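Also: peak tail current of the secondary pulse compared with the same well before compound.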
# human ether-à-go-go-related gene (hERG) potassium channel, sequence (Q12809 whole entry, looked up): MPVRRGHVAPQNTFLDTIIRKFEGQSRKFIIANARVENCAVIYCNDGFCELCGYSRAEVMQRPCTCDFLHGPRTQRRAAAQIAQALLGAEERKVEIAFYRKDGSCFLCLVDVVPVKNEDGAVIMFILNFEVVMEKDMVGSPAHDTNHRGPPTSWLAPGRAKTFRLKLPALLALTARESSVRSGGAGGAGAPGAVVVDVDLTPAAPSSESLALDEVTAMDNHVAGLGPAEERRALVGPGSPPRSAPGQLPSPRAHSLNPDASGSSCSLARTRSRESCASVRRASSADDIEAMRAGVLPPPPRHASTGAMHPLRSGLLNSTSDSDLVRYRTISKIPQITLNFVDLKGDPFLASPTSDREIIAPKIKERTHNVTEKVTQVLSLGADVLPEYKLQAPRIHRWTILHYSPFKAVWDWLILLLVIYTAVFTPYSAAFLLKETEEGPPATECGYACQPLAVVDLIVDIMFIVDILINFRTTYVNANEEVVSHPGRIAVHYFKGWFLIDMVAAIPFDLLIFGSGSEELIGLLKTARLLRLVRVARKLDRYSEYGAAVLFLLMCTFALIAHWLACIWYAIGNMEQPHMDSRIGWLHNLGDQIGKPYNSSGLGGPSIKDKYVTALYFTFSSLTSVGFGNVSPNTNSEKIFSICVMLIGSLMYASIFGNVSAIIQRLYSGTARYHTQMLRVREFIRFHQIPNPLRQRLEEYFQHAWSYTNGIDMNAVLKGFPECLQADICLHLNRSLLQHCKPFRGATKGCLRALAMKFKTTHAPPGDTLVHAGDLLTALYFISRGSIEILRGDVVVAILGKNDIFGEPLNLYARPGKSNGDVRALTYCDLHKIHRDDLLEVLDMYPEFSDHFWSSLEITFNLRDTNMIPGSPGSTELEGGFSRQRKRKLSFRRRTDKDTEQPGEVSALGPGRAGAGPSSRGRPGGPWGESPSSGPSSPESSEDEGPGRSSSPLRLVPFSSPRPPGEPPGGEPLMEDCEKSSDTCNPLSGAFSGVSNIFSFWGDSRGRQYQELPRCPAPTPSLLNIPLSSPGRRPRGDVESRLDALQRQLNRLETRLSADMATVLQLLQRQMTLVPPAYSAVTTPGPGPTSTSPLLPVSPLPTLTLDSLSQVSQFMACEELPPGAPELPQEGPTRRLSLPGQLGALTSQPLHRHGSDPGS
row,SMILES,"hERG current change (%, negative = inhibition) at 10uM [%]"
1,COc1ccccc1Nc1nc(-c2sc(NC(=O)c3ccc([N+](=O)[O-])cc3)nc2C)cs1,-1.25
2,CC1CCN(CCCNC(=O)COc2cc(=O)n(C)c3ccccc23)CC1,8.58
3,CCSC1=C(C#N)C2(CCCC2)C(C#N)=C(N)N1,-22.4
4,COc1ccc(C(=O)OCCN2CCOCC2)cc1OC.Cl,7.96
5,Cn1ncc2c(NCc3ccccc3)ncnc21,-11
6,Cc1c(C(=O)N/N=C/c2ccc(O)c(Br)c2)sc(N)c1C#N,2.49
7,Cn1cc(Cl)c(C(=O)NC2CCCC2)n1,4.09
8,CCC(=O)Nc1ccc(N2CCN(S(C)(=O)=O)CC2)cc1,26.4
9,Cc1ccc(OCCC(=O)OCC(=O)NC2CCS(=O)(=O)C2)cc1 (stereo not shown),-3.57
10,CC(=O)Nc1ccc(-c2csc(NC(=O)C3CC(=O)N(c4ccc5c(c4)OCCO5)C3)n2)cc1 (stereo not shown),15.7
11,O=C1ON=C(c2ccc([N+](=O)[O-])cc2)/C1=C/c1ccccc1O,16.5
12,CCOC(=O)c1c(NC(=O)c2cccc(N3C(=O)CCC3=O)c2)sc(C)c1C,5.4
13,Cc1c(C(=O)O)cccc1-c1ccc(/C=N/n2cnnc2)o1,20.7
14,CSc1oc(-c2ccccc2)nc1S(=O)(=O)c1ccc(F)cc1,-6.65
15,CCN1/C(=C/c2ccc3cccc(C)c3[n+]2CC)Sc2ccccc21.[I-],-75
16,O=c1/c(=C/c2ccccc2)sc2nnc(-c3cccs3)n12,5.5
17,O=C(Nc1cccnc1Cl)c1cc([N+](=O)[O-])ccc1Cl,9.09
18,Cc1ccc(C(=O)NC2CC(C)(C)NC(C)(C)C2)cc1Cl,10.9
19,CCOC(=O)N1CCN(C(=O)c2oc3ccc(S(=O)(=O)N4CC(C)CC(C)C4)cc3c2C)CC1 (stereo not shown),-28.3
20,COc1cccc(/C=C/c2nc3c(cnn3-c3ccccc3)c(=O)[nH]2)c1,2.5
21,CN(Cc1cccc(F)c1)C(=O)CNS(=O)(=O)c1ccc2ccccc2c1,18.5
22,O=C(CCn1c(=O)oc2ccccc21)Nc1ccc2c(c1)OCCO2,10.6
23,Cc1ccc(C2(C)NC(=O)N(CC(=O)NC(=O)NCCC(C)C)C2=O)cc1 (stereo not shown),-13.6

row,SMILES,"hERG current change (%, negative = inhibition) at 10uM [%]"
1,Cc1ccc2[nH]cc(CCNC(=O)C3CCCO3)c2c1 (stereo not shown),8.04
2,COc1ccc(S(=O)(=O)N2CCOCC2)cc1C(=O)N1CCCCCC1,6.5
3,O=C(c1ccc2c(=O)n(-c3ccccc3)c(=S)[nH]c2c1)N1CCN(c2ccccc2)CC1,-1.95
4,O=C(NCCc1ccc(F)cc1)N[C@@H](Cc1ccccc1)C(=O)O,6.08
5,COC(=O)c1cn(C(=O)c2ccccc2Cl)c2ccccc12,-41.9
6,CCOc1ccc(NC(=O)CSc2nc(C3CC3)nc3ccccc23)cc1,25.5
7,Cc1cc(NC(=O)COc2ccccc2C#N)no1,17.7
8,Cc1cccc(N(C)C(=O)C2CCCN2S(=O)(=O)c2cccc3nsnc23)c1 (stereo not shown),8.06
9,CC(C)c1[nH]nc2c1C(c1ccco1)C(C#N)=C(N)O2 (stereo not shown),17.6
10,S=C(Nc1cc(Cl)cc(Cl)c1)NC1CCN(Cc2ccccc2)CC1,-33.6
11,Cc1ccc(O)c(C(=O)/C=C/c2ccc3c(c2)OCCCO3)c1,-10.1
12,Cc1ccc2c(cnn2C(=O)CCCC(=O)NCc2cccc(F)c2)c1,3.47
13,CCCOc1c(Br)cc(C(=O)NCC)cc1OC,-35.2
14,OC(COc1ccccc1)CSc1ncn[nH]1 (stereo not shown),-5.7
15,COc1ccc(/C=C/C(=O)O)cc1S(=O)(=O)NCc1ccccc1,13.8
16,Cc1cc(NC(=S)NC(=O)CC(C)C)ccc1Br,12.1
17,C=C(C)CNC(=S)NNC(=O)c1ccncc1,6.86
18,NC(=O)c1cc([N+](=O)[O-])ccc1NCCN1C(=O)c2ccc(C(=O)O)cc2C1=O,13.2
19,CC(C)N(C(=O)CSc1nc2c([nH]1)c(=O)n(C)c(=O)n2C)c1ccccc1,12.2
20,O=S(=O)(Nc1cccc(-c2cn3cccnc3n2)c1)c1ccccc1,-5.45
21,CC(=O)c1ccc(OCc2cccc(C(F)(F)F)c2)cc1O,8.99
22,CC(=O)Nc1ccc(C(=O)COC(=O)CN2C(=O)NC3(CCCCC3C)C2=O)cc1 (stereo not shown),7.95
23,CSc1nnc(-c2cc[n+](C)cc2)n1CCO.[I-],14

row,SMILES,"hERG current change (%, negative = inhibition) at 10uM [%]"
1,Cc1c(Cl)cccc1NC(=O)COc1ccc(S(=O)(=O)N2CCOCC2)cc1,-13.9
2,COC(=O)C1(O)CC(C(C)C)=NN1C(=O)c1ccc(Cl)cc1 (stereo not shown),9.28
3,O=C(NCc1n[nH]c(=S)n1-c1ccc(F)cc1)c1ccc(S(=O)(=O)N2CCCC2)cc1,18.2
4,Cc1ccc(NC(=O)COC(=O)[C@H](C)NC(=O)c2ccccc2)cc1S(=O)(=O)N1CCOCC1,-11.5
5,CC(C)C(=O)Nc1ccc2oc(=O)ccc2c1,19.9
6,CC(C)OC(=O)CC1C(=O)NCCN1C(=S)NC(=O)c1ccccc1Cl (stereo not shown),13.6
7,COc1ccc(-c2csc(N3CCN(Cc4ccc5c(c4)OCO5)CC3)n2)cc1,-11.3
8,CCOc1ccc(-n2c(=O)c3sccc3n(CC(=O)NC3CCCCC3)c2=O)cc1,9.7
9,O=C(NNC(=S)Nc1cccc(Cl)c1)c1ccccc1OC(F)F,1.16
10,COc1ccc(NC(=O)CCc2ccccc2)cc1S(=O)(=O)N1CCCCC1,12.4
11,CC(C)(C)C(=O)NNC(=O)CCCOc1ccc(Cl)cc1Cl,6.36
12,Cc1ccc2nc(C)cc(Cl)c2c1,16.9
13,CNC(=O)c1c[nH]n2c(=O)c(Cc3ccccc3F)c(C)nc12,16.9
14,O=C(NCCCN1CCOCC1)c1cc(S(=O)(=O)N2CCOCC2)c(Cl)cc1Cl,12.5
15,O=C(COC(=O)c1ccccc1NC(=O)c1ccco1)Nc1ccc2c(c1)OC(F)(F)O2,12.2
16,CCC(C)CCCCNC1=NCCS1 (stereo not shown),-22.7
17,CCOC(=O)N1CCN(C(=O)c2ccccc2NC(=O)c2ccccc2Cl)CC1,3.22
18,COC(=O)c1ccc2ccccc2n1,12.1
19,CCCc1cc(=O)[nH]c(SCC(=O)c2cc(C)n(CC(F)(F)F)c2C)n1,7.55
20,O=C(Nc1ccncc1)c1cccc(S(=O)(=O)N2CCN(c3ccc(F)cc3)CC2)c1,-82.9
21,Cc1cc2c(c(=O)o1)C(C(C)C)C(C#N)=C(N)O2 (stereo not shown),5.44
22,CC1=C(C(=O)OCc2ccccc2)C(/C=C/c2ccccc2)NC(=S)N1 (stereo not shown),5.06
23,Cc1cc(CSc2ccccc2)ccc1NC(=O)COc1ccccc1,9.72

row,SMILES,"hERG current change (%, negative = inhibition) at 10uM [%]"
1,Cc1ccc(CNC(=O)c2ccc(NS(=O)(=O)c3cccs3)cc2)cc1,-0.484
2,CCc1nc2sc3ccccc3c(=O)c2c(=O)n1Cc1ccc(OC)cc1,4.19
3,CCC(C)[C@H](NC(=O)N1CCC(C)CC1)C(=O)O (stereo partly shown),0.689
4,COc1ccccc1OC(=O)CN1C(=O)c2ccccc2C1=O,-1.83
5,Cc1cc(N2CCN(C)CC2)ccc1NC(=O)c1cccc(S(=O)(=O)N2CCc3ccccc3C2)c1,0.654
6,COc1cc2c(cc1OC)C(C)N(C(=O)C1COc3ccccc3O1)CC2 (stereo not shown),-35.3
7,O=c1c2ccccc2nc2c3ccccc3ncn12,6.37
8,CC(C)CC(=O)Nc1ccc(S(=O)(=O)N2CCCC2)cc1,17.1
9,O=C(N/N=C/c1ccc(O)cc1)NC12CC3CC(CC(C3)C1)C2,-55.7
10,O=C1NC2c3ccccc3C(=O)N2c2c1cnn2-c1ccccc1 (stereo not shown),-12.7
11,O=C(CCN1C(=O)/C(=C\c2cccs2)SC1=S)Nc1ccccn1,8.73
12,O=S(=O)(c1ccccc1)c1cnc2ccccc2c1,6.72
13,O=C(COc1ccc(Cl)c(Cl)c1)NC1CCS(=O)(=O)C1 (stereo not shown),2.02
14,COC(=O)C1(C)NC(c2ccco2)C2C(=O)N(c3ccc(F)cc3)C(=O)C21 (stereo not shown),30.3
15,COc1ccc(N=C(C)c2c(O)[nH]c(=O)[nH]c2=O)cc1,21.6
16,O=C(CCl)Nc1cccc(S(=O)(=O)NC2=NCCC2)c1,-0.632
17,O=C(NCc1ccc(F)cc1Cl)C1CC(=O)N(C2CCCCCCC2)C1 (stereo not shown),14.6
18,Oc1ccc2ccccc2c1CN1CCOCC1,-6.06
19,CCc1ccc(NC(=O)CCn2c(=O)c3cccn3c3ccccc32)cc1,-8.24
20,COc1ccccc1CN1CC(C(=O)NCC2CCCO2)CC1=O (stereo not shown),-4.32
21,Cc1ccc(C(O)P(=O)(OCc2ccccc2)c2ccc(N(C)C)cc2)cc1 (stereo not shown),13.6
22,COC(=O)C1C2C=CC3(CN(C(C)c4ccc(OC)cc4)C(=O)C13)O2 (stereo not shown),2.48
